Test results taken from a collection of fitness landscapes (doi:10.1016/j.celrep.2020.107928).
Whole data set: some 81,000 sequences, median “one-hybrid fitness for binding NBS DNA” near -0.1, cut for the highest 2% near 0.36. Some of the results follow.

B1: Caulobacter ParB omega fusion; a variant is named by its letters at X, in order, B8GW30 (parent)
chain: MESVVVGEPGMSEGRRGLGRGLSALLGEVDAAPAQAPGEQLGGSREAPIEILQRNPDQPRRTFREEDLEDLSNSIREKGVLQPILVRPSPDTAGEYQIVAGERAWRAAQRAGLKTVPIMVRELDDLAVLEIGIIENVQRADLNVLEEALSYKVLMEKFERTQENIAQTIGKSXSHVANXMRLLXLPDEVQSYLVSGELTAXHARAIAAAADPVALAKQIIEGGLSVRETEALARKAPNLSAGKSKGGRPPRVKDTDTQALESDLSSVLGLDVSIDHRGSTGTLTITYATLEQLDDLCNRLTRGI

Variants of: B1
Test: one-hybrid fitness for binding NBS DNA (the Noc-binding site; scaled: cognate 1, non-cognate 0); higher = stronger binding
Conditions: with NBS DNA site
How it was run: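 Selection: bacterial one-hybrid in E. coli USO, HIS3 reporter with the site 19 bp from the promoter, 48 hours at 37°C on M9-minus-histidine plus 0.1 mM IPTG and 5 mM 3-AT. Libraries were Caulobacter ParB with four randomised specificity codons, sequenced on Illumina before and after selection. Fitness is the rescaled log change in variant-to-wild-type read ratio, anchored to the cognate and non-cognate sites.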

one-hybrid fitness for binding NBS DNA, 0.355:
KRTA

one-hybrid fitness for binding NBS DNA, ≤ 0.2:
ADQV
RFTD
LCAF
MLRV
VPGE
YWMT
RMGI
NLWV
ITIY
KYRF
MWMS
VMYR
SASG
CGML
YIIN
MHVD
QCPH
ATEE
QQQI
AGYS
MHNL
SMVS
CSNW
HTTS
DHMT
GEVR
SRKK
CVHY
EPTS
ITST
PRGF
EKDR
IYSS
VKEG
AHPN
HSQC
DRVR
AVKY
RQRD
RTMP
IATM
CQTL
AYTS
NMGR
CHQM
FSIT
SAIT
AVHW
WRHR
HCAW
NKWE
QNIV
LSHH
MFKT
TFDS
QEMV
FDRG
DCNV
YYIS
GFTV
NGKG
HMNT
AKPV
HLGE
ESCC
CARR
EGER
GNAC
DCHN
EDPF
ILYQ
DHTF
KGDG
VWGT
WCNS
IGKG
NWRM
YKAC
ATPP
TLVM
MTSD
TIHV
DLEL
GLYS
NHGV
HCQR
TSYF
YGNV
RWFC
NRWE
SSWG
RQMG
LESG
ENYG
CLAF
QCSK
HQQG
VSQN
KCES
YMYG
WRAY
QNDF
NRDR
ADSM
KKDC
YPEN
PNHR
LWPC
PRVR
TTLH
DAFC
HLAI
DKNG
NVPK
KCFS
VTHW
VYRA
AACD
KPTN
QYNC
TSAY
CLPI
EPSI
VLDF
PCQF
SYES
RTQL
DYVT
EHDR
PCSA
LALA
RPVV
SMQG
ILWG
PTPH
QSPA
NHRC
FTFC
VDRV
TKMR
PQWL
MSDP
QEVR
KDLI
RVYD
SIQQ
PWEY
CIDV

one-hybrid fitness for binding NBS DNA, 0.426:
RKVS

one-hybrid fitness for binding NBS DNA, 0.277:
MAKR

one-hybrid fitness for binding NBS DNA, 0.458:
QCTS

one-hybrid fitness for binding NBS DNA, 0.423:
QKVR
